Test results as given in the supplement of paper PMC12217912.
The other results are listed elsewhere or left out. Sequences were assembled here from the parent chain. Inactive controls read about 0.05.

B1: TEV protease; numbered along this chain (parent)
chain: MGESLFKGPRDYNPISSSICHLTNESDGHTTSLYGIGFGPFIITNKHLFRRNNGTLVVQSLHGVFKVKDTTTLQQHLVDGRDMIIIRMPKDFPPFPQKLKFREPQREERICLVTTNFQTKSMSSMVSDTSCTFPSGDGIFWKHWIQTKDGQCGSPLVSTRDGFIVGIHSASNFTNTNNYFTSVPKNFMELLTNQEAQQWVSGWRLNADSVLWGGHKVFMVKPEEPFQPVKEATQL

Variants of: B1
Assay: raw area under fraction-flipped curve 0-4 h after induction (AUC4h, not background-subtracted), DNA-recorder readout of cleavage of the substrate (dimensionless); higher = more cleavage of the substrate by the protease variant
Details: temperature: 34 °C; time window: 0-4 h after rhamnose induction
Method: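 In vivo DNA recorder in E. coli TOP10(DE3) ΔrhaA at 34 °C. Each TEVp single-site mutant (parent TEVp 0) is paired with a single-site variant of the 7-mer TEVs (canonical ENLYFQ|S). The substrate sits between flexible linkers in a Bxb1-sfGFP-TEVs-SsrA fusion, so cleavage stabilises Bxb1 and speeds flipping of a recombination array, read by NGS. The value is the raw area under the fraction-flipped curve over 0-4 h after rhamnose induction (AUC4h), with ≥20 reads per time point. It is not background-subtracted; inactive controls average about 0.047.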
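Also: Bxb1 expression induced with 0.2% (w/v) L-rhamnose at OD600 near 0.5, cultures sampled hourly, flipped fraction per protease–substrate barcode pair counted by paired-end Illumina sequencing.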

| Variant | area with substrate ENAYFQS | area with substrate ENCYFQS | area with substrate ENDYFQS | area with substrate ENEYFQS | area with substrate ENFYFQS | area with substrate ENGYFQS | area with substrate ENHYFQS | area with substrate ENKYFQS | area with substrate ENMYFQS | area with substrate ENRYFQS | area with substrate ENSYFQS | area with substrate ENVYFQS | area with substrate ENWYFQS | area with substrate ENIYFQS | area with substrate ENPYFQS | area with substrate ENQYFQS | area with substrate ENTYFQS | area with substrate ENNYFQS | area with substrate ENYYFQS |
| --- | --- | --- | --- | --- | --- | --- | --- | --- | --- | --- | --- | --- | --- | --- | --- | --- | --- | --- | --- |
| V217M | 0.0545 | 0.076 | 0.0639 | 0.062 | 0.0592 | 0.06 | 0.0501 | 0.0605 | 0.0577 | 0.0543 | 0.0731 | 0.0667 | 0.0626 |  |  |  |  |  |  |
| H143Q | 0.0543 | 0.0574 | 0.0621 | 0.0663 | 0.0616 | 0.0539 |  |  | 0.0492 | 0.0627 | 0.0722 | 0.0538 |  | 0.0553 | 0.0406 | 0.0487 | 0.0533 |  |  |
| F65C | 0.0629 | 0.0753 | 0.0623 | 0.0366 |  | 0.0417 | 0.0634 | 0.0632 |  | 0.0655 | 0.0701 |  |  | 0.101 | 0.0659 | 0.0578 |  | 0.0648 |  |
| F180Y | 0.0729 |  | 0.0638 | 0.0703 | 0.0525 | 0.0664 |  |  | 0.0515 | 0.0571 | 0.0632 | 0.0795 |  |  | 0.0595 |  |  | 0.0563 |  |
| G166Y | 0.0742 | 0.057 | 0.0557 | 0.0578 |  |  | 0.0486 |  | 0.0521 |  | 0.0359 | 0.0557 |  |  |  | 0.0601 |  |  |  |
| Y179P | 0.0558 |  |  | 0.058 |  |  |  | 0.0623 |  | 0.0449 | 0.0529 | 0.0586 |  | 0.0459 |  | 0.0605 | 0.0499 |  |  |
| N193H | 0.0625 |  | 0.0639 |  | 0.0662 |  | 0.0592 |  | 0.0535 |  |  | 0.0775 |  |  |  |  | 0.0905 | 0.0695 |  |
| F218Q | 0.0543 |  | 0.0862 | 0.0865 | 0.063 | 0.0566 | 0.0638 | 0.0617 | 0.0685 |  | 0.0685 |  | 0.0384 | 0.117 | 0.0568 | 0.0523 | 0.0811 | 0.0617 | 0.0616 |
| Y34T | 0.0683 |  | 0.048 | 0.0617 | 0.0507 |  | 0.0602 |  |  | 0.0831 |  |  |  |  |  | 0.0621 |  |  | 0.059 |
| M125F | 0.0693 | 0.059 | 0.0578 | 0.0635 | 0.0551 |  | 0.0515 |  |  |  | 0.048 | 0.112 |  |  |  | 0.0166 |  |  |  |
| V126K | 0.0561 | 0.0622 | 0.061 | 0.0385 |  |  | 0.0569 |  |  | 0.0567 | 0.071 | 0.0774 |  | 0.102 | 0.0519 | 0.0543 | 0.0579 | 0.0711 |  |
| D82T | 0.0477 | 0.0766 | 0.0615 | 0.056 | 0.0471 | 0.0825 | 0.0609 | 0.0609 | 0.0482 | 0.0508 | 0.0585 | 0.0547 | 0.0644 | 0.0492 | 0.0549 | 0.0486 | 0.0708 | 0.046 | 0.0443 |
| Q146G | 0.0566 |  | 0.0722 | 0.0482 |  |  |  | 0.0589 | 0.0782 |  | 0.092 |  |  | 0.102 | 0.0327 | 0.063 |  | 0.07 |  |
| Q146E | 0.0582 | 0.0571 | 0.0453 | 0.066 | 0.0801 |  | 0.059 |  | 0.0789 | 0.0714 | 0.076 | 0.0834 | 0.0484 |  | 0.0819 | 0.0619 |  |  | 0.0596 |
| F92S | 0.0477 | 0.0589 | 0.0548 | 0.0665 |  |  |  |  |  | 0.0502 | 0.0661 | 0.071 | 0.045 | 0.0893 | 0.0766 | 0.0637 | 0.0648 |  | 0.0581 |
| G37D | 0.0345 | 0.0512 | 0.0235 |  | 0.0453 |  | 0.0422 |  | 0.0452 |  |  | 0.0465 |  |  | 0.0399 | 0.0441 | 0.0621 |  | 0.0504 |
| S209M | 0.0534 |  | 0.0665 |  | 0.084 | 0.0647 | 0.0689 |  | 0.0934 |  |  |  |  |  | 0.0592 | 0.0597 | 0.0682 | 0.0935 | 0.0673 |
| S209Q | 0.0529 | 0.0678 | 0.0525 | 0.0662 | 0.0606 |  | 0.0667 | 0.053 | 0.0902 | 0.0518 | 0.0641 | 0.0668 |  |  |  | 0.0551 | 0.0727 | 0.0493 | 0.0428 |
| T70C | 0.0458 | 0.059 | 0.0618 | 0.059 | 0.0434 | 0.0649 |  | 0.0391 |  | 0.0584 |  | 0.0647 |  |  |  | 0.0624 |  |  |  |
| L190K | 0.0554 | 0.0667 | 0.0648 | 0.0275 |  | 0.0652 | 0.0614 | 0.058 | 0.051 |  | 0.0707 |  | 0.0603 | 0.12 |  | 0.0639 | 0.0627 | 0.0563 |  |
| S158C | 0.0835 | 0.0691 | 0.0816 | 0.0734 |  | 0.0723 | 0.0606 |  |  | 0.077 |  | 0.0733 |  |  | 0.0553 | 0.059 | 0.0872 | 0.0423 |  |
| E189Q | 0.0671 |  |  | 0.0324 | 0.0661 |  |  |  |  | 0.0543 |  | 0.0767 |  |  | 0.0737 | 0.0639 | 0.0575 | 0.0672 | 0.0796 |
| V58Y | 0.059 | 0.0575 | 0.0496 | 0.0504 | 0.0541 | 0.0684 |  | 0.053 | 0.0581 |  | 0.0493 |  | 0.0541 | 0.0687 | 0.0546 |  | 0.0586 | 0.0472 |  |
| V58I | 0.0849 |  | 0.0576 | 0.0679 |  |  |  |  | 0.0937 | 0.0505 |  | 0.0895 |  | 0.0849 |  |  |  |  |  |
| W199A | 0.074 |  | 0.0564 |  |  |  |  |  |  | 0.0706 | 0.0764 | 0.0538 |  |  |  |  |  | 0.0624 |  |
| N206V | 0.0622 | 0.0571 | 0.0527 | 0.0651 |  |  | 0.0791 |  |  | 0.0645 | 0.0473 |  | 0.0421 |  |  | 0.0547 | 0.0572 |  |  |
| I145A | 0.0605 |  | 0.055 | 0.0704 | 0.0713 | 0.0536 |  |  |  | 0.0427 | 0.0599 | 0.107 |  |  |  | 0.0599 |  | 0.0451 |  |
| K98H | 0.0624 |  | 0.0728 | 0.0636 | 0.0603 | 0.0506 | 0.0405 | 0.0554 | 0.0695 | 0.0682 | 0.045 | 0.073 | 0.0608 | 0.118 | 0.0751 | 0.0633 | 0.0595 |  | 0.0538 |
| K216Y | 0.0551 | 0.0438 | 0.0637 |  | 0.0582 |  | 0.0519 |  |  |  |  | 0.0647 |  | 0.0525 |  | 0.0591 |  |  | 0.0434 |
| V165H | 0.0568 |  | 0.0492 | 0.0482 |  | 0.0584 |  |  |  |  |  | 0.0371 |  |  | 0.0516 | 0.0467 | 0.0574 |  |  |
